Consider one molecule from paper PMC6884552, “Glycogen branching enzyme controls cellular iron homeostasis via Iron Regulatory Protein 1 and mitoNEET” (Nature Communications, 2019).

Results are given in words; binding and its absence hold for the method and conditions named. In cells and extracts the contact can be indirect. Some results given as binding are weak or reduced against the parent protein; the word gives no strength. Tags and fused reporters may be left off the sequences shown.

Assay [1] has as its target T1, Myc-tagged Drosophila 1,4-Alpha-Glucan Branching Enzyme (AGBE) (Drosophila) (UniProt A1Z992).
T1 sequence: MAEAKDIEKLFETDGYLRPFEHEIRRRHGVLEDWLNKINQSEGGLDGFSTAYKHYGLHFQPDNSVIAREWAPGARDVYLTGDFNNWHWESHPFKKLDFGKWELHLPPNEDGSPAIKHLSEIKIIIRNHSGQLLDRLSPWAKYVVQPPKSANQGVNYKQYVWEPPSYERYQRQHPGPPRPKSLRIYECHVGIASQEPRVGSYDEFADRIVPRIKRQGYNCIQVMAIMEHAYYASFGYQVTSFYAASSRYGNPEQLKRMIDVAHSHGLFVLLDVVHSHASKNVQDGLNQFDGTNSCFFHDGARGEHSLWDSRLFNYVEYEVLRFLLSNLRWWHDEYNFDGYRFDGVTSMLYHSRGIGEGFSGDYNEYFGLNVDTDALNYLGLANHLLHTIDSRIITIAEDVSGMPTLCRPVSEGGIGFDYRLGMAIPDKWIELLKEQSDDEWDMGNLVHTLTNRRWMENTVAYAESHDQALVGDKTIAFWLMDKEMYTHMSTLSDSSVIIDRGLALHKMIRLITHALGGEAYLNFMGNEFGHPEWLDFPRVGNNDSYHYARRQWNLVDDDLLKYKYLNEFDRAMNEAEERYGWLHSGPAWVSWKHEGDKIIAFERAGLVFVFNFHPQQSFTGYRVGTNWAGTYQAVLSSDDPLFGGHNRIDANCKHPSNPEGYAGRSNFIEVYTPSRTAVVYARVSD
Briefly: co-IP; S2 cells co-transfected with two tagged cDNAs; Myc-tagged baits on Myc-Trap agarose, Flag-tagged baits on M2 Flag agarose; Western blot with anti-Flag, anti-HA or anti-Myc.

The target in assay [2] is T2, Flag-tagged Drosophila Iron Regulatory Protein 1A (IRP1A), wild type (Drosophila) (UniProt Q9VCV4).
T2 sequence: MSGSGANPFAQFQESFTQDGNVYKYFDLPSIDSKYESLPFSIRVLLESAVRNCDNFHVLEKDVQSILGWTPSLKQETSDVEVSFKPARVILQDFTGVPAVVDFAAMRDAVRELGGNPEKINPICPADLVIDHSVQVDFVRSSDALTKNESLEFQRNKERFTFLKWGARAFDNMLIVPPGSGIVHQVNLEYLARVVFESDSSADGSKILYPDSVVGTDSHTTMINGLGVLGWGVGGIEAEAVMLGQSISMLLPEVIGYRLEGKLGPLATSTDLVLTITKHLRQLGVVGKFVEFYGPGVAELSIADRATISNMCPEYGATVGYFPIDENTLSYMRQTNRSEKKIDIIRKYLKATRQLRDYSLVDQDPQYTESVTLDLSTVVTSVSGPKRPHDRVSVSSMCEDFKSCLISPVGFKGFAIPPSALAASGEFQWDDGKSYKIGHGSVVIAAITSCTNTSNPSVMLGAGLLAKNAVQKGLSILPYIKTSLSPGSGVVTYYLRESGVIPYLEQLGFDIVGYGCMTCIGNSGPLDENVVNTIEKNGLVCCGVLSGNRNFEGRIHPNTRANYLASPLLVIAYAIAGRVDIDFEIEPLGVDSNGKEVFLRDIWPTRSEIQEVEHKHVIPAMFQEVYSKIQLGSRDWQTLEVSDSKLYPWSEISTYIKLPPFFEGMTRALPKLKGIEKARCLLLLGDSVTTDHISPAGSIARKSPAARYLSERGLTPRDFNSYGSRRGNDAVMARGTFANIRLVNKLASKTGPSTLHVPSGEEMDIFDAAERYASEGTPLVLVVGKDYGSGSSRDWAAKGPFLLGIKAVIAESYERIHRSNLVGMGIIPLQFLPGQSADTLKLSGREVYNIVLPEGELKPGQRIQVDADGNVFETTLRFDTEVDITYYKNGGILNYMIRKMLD
The assay is described as above.

B1: HA-tagged Drosophila Cisd2 (natural protein, UniProt Q9VAM6 1-133, looked up)
chain: MEPISHLVKSSLPNYLSSLPVPDSIGGWFKLSFKDWLALIPPTVVVAGLGYTAYLAYCPAARASCAAKNSGRCNNHIRKNEPKVVDMIDVEDIAEKAAFCRCWKTKNWPYCDGSHGEHNKQTGDNVGPIVIKK
notes: Drosophila Cisd2, cDNA RE49709; also called mitoNEET; Cisd2/mitoNEET; source: S2 cells, transfected, in lysate
For the molecule B1, the binding entry in assay [1] and in assay [2] was “binds” in each case.
